From PubChem BioAssay AID588591 (National Center for Advancing Translational Sciences (NCATS), 2011)
Out of some 390,000 compounds screened, about 4,700 (1.2%) were called active. The shares of active, inactive and inconclusive entries below differ from those in the screen. The call rests on the fitted dose curve; in most records, active means well fitted inhibition curve with a large enough effect; inconclusive means small, poorly fitted or top-dose-only effect, or another doubt; inactive means no such curve, though single readings can be large or run the other way. Potencies of inconclusive entries are doubtful fits and often do not repeat.

Target: DNA polymerase eta (Homo sapiens) (UniProt Q9Y253)
Chain of UniProt Q9Y253 (Q9Y253 whole entry, looked up): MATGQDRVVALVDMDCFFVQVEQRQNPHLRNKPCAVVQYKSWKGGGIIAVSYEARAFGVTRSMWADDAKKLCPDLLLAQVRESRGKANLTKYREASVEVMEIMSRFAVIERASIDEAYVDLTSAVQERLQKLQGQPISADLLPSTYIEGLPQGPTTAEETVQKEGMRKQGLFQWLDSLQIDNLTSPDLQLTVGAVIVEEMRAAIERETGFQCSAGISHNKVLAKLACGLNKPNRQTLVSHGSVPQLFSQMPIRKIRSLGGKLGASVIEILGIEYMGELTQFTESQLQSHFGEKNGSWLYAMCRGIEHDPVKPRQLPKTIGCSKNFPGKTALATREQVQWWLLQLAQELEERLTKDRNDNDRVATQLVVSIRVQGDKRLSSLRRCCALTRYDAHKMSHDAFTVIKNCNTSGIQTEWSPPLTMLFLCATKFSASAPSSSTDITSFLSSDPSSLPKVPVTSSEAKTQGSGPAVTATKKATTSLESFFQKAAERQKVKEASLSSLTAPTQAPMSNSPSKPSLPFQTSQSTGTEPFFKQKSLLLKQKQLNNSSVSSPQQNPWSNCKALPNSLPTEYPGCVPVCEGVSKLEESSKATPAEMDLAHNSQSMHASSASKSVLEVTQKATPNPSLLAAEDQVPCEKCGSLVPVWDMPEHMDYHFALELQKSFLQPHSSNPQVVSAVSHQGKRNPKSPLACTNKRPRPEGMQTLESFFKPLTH
Assay: qHTS for Inhibitors of Polymerase Eta
Conditions: recombinant Pol eta, fluorescent DNA replication assay; series mostly up to 114 µM; activity change, negative = inhibition: at the top concentration
Summary of the method: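 Fluorescent replication assay: 50 nM final substrate added after a 15 min room-temperature compound preincubation with 10 nM enzyme. Signal taken at 0 min and again at 10 min.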
On the % scale 0 is the no-effect control and ±100 the full control effect; potency means the concentration at half of the fitted maximal effect; tags describe the fitted curve by direction and shape.

Row | Compound | Potency | activity change, negative = inhibition
1 | CCC(C)Cn1c(O)cc2nn(-c3nc4ccccc4s3)c(=O)c-2c1C (stereo not given) | inconclusive: 89.1 µM [inhibitor, partial curve] | –
2 | CN(C(=O)CSc1nc(-c2ccc(C(C)(C)C)cc2)c(C#N)c(=O)[nH]1)C1CCCCC1 | active: 35.5 µM | –
3 | Cc1cc(-c2cccs2)c2c(n1)sc1c(=O)[nH]c(=O)[nH]c12 | inconclusive: 79.4 µM [inhibitor, partial curve, poor fit] | –
4 | C[C@@H]1COC(=O)[C@@H](CC(=O)OC(C)(C)C)C/C=C\C[C@H](CC(=O)NCCO)C(=O)N1 | – | inactive: -15.2%
5 | O=S(=O)(c1ccc(Oc2ccc(-c3nnco3)cc2)nc1)N1CCC(Cc2ccccc2)CC1 | active: 44.7 µM | –
6 | O=C(/C=C/c1ccco1)N(c1ccccn1)c1ccccn1 | active: 8.91 µM | –
7 | O=S(=O)(O)c1cc(O)c2cc(Nc3ccccc3)ccc2c1 | active: 2.82 µM | –
8 | O=C(O)[C@@H]1[C@H]2C[C@H]3c4[nH]c5ccccc5c4CCN3C[C@@H]2CC[C@@H]1O | active: 79.4 µM | –
9 | CCN(CC)S(=O)(=O)c1ccc2c(c1)N(CC(=O)N1CCN(c3ccc(Cl)cc3)CC1)C(=O)CO2 | inconclusive: 100 µM [inhibitor, partial curve, poor fit] | –
10 | Cc1ccc(S(=O)(=O)Nc2cccc(-n3cnnn3)c2)cc1C(=O)O | inconclusive: 35.5 µM [inhibitor, single point] | –
11 | O=C1C(=NO)CCc2ccccc21 | active: 17.8 µM | –
12 | S=c1[nH]nc(-c2ccncc2)n1/N=C/C(Cl)=C\c1ccccc1 | inconclusive: 79.4 µM [inhibitor, partial curve] | –
13 | N#Cc1c(NC(=O)CCn2cnc3ccccc3c2=O)oc(-c2ccccc2)c1-c1ccccc1 | inconclusive: 12.6 µM [inhibitor, partial curve, poor fit] | –
14 | Cc1nc(-c2coc3cc(C)c(N=O)c(O)c3/c2=N\N)cs1 | inconclusive: 89.1 µM [inhibitor, single point] | –
15 | COc1ccc(NC(=O)CSc2nc(-c3ccccc3)[nH]c2-c2ccccc2)cc1OC | – | inactive: -6.7%
16 | C#CC(=O)N(c1cc(OC)ccc1OC)C(C(=O)NC1CCCC1)c1cccs1 (stereo not given) | inconclusive: 11.2 µM [inhibitor, partial curve, poor fit] | –
17 | Cc1cc([N+](=O)[O-])nn1CC(=O)c1ccccc1 | inconclusive: 79.4 µM [inhibitor, partial curve, poor fit] | –
18 | CCOC(=O)c1ccc(NC2=CC(=O)C(=O)c3ccccc32)cc1 | active: 35.5 µM | –
19 | O=[N+]([O-])c1ccccc1S(=O)(=O)N1CCSCC1 | active: 89.1 µM | –
20 | Nn1c(-c2ccc(O)cc2)nnc1-c1ccc(O)cc1 | inconclusive: 89.1 µM [inhibitor, partial curve, poor fit] | –
21 | O=C(CSc1nc2c([nH]c3ccccc32)c(=O)n1-c1ccc(F)cc1)NCc1ccc(F)cc1 | – | inactive: 0.238%
22 | C=CCOC(=O)C1=C[C@@H](c2csc3ccccc23)[C@H](CCCO)[C@@H](OCC)O1 | inconclusive: 89.1 µM [inhibitor, partial curve, poor fit] | –

Row | Compound | Potency | activity change, negative = inhibition
23 | Cc1ccc(Sc2ncccc2COC(=O)Nc2ccccc2)cc1 | inconclusive: 79.4 µM [inhibitor, partial curve, poor fit] | –
24 | Cc1nc(-c2ccc(S(=O)(=O)N(Cc3ccccc3)C(C)C)cc2)co1 | inconclusive: 89.1 µM [inhibitor, partial curve, poor fit] | –
25 | COc1cc(NC(=O)COC(=O)CCc2cc(OC)c(OC)c(OC)c2)cc(OC)c1 | inconclusive: 15.8 µM [inhibitor, partial curve, poor fit] | –
26 | CCCCNC(=O)c1sc(=S)n2c1[nH]c(=O)c1ccccc12 | inconclusive: 15.8 µM [inhibitor, full curve] | –
27 | O=C(COc1ccc(F)cc1)Nc1ccc(C(=O)OCc2cc(=O)n3nc(C4CC4)sc3n2)cc1 | – | inactive: -4.56%
28 | Cc1ccc(CN(Cc2cccn2-c2nnc(N3CCCC3=O)s2)C(=O)Nc2ccc(F)cc2)cc1 | – | inactive: -14.4%
29 | CCOC(=O)c1ccc(N2CC(O)=C(c3nc4ccccc4c(=O)[nH]3)C2=N)cc1 | inconclusive: 14.1 µM [inhibitor, full curve, poor fit] | –
30 | O=C1CC(c2cccc(Cl)c2Cl)c2cc3c(cc2N1)OCCO3 (stereo not given) | – | inactive: -12.5%
31 | Cc1ccc(Cn2ccnc2SCC(=O)Nc2ccccc2C(F)(F)F)cc1 | inconclusive: 100 µM [inhibitor, partial curve, poor fit] | –
32 | COc1cccc(CNC(=O)c2cccc(S(=O)(=O)N3CCN(Cc4ccccc4)CC3)c2)c1 | inconclusive: 100 µM [inhibitor, partial curve, poor fit] | –
33 | O=C(COc1ccc([N+](=O)[O-])cc1)Nc1nnc(-c2cccnc2)s1 | active: 39.8 µM | –
34 | CCOCCCn1c(=NC(=O)c2cccnc2)c(C(=O)OCC)cc2c(=O)n3ccccc3nc21 | inconclusive: 79.4 µM [inhibitor, partial curve] | –
35 | NC(=O)c1ccsc1NC(=O)COC(=O)COc1ccccc1F | inconclusive: 15.8 µM [inhibitor, partial curve] | –
36 | CN(C)c1ccc(C=c2c3ccccc3n3c2c2ccccc2[n+]3C)cc1 | inconclusive: 20 µM [inhibitor, full curve] | –
37 | S=c1[nH]nc(-c2n[nH]c3c2CCC3)n1/N=C/C=C/c1ccco1 | active: 25.1 µM | –
38 | N#Cc1ccc(NC(=O)CSc2nc3[nH]c(=O)cc(O)c3s2)cc1 | inconclusive: 1.26 µM [inhibitor, full curve, poor fit] | –
39 | CC(=O)C1=C(c2ccc(Cl)c(Cl)c2)N(C(C)=O)n2cnnc2S1 | – | inactive: -20.6%
40 | CC(C)(C)C(=O)Nc1c2c(nc3c1CCC3)CCCC2 | inconclusive: 28.2 µM [inhibitor, single point] | –
41 | Cc1nn(C)cc1C=NCCOCc1ccccc1 | inconclusive: 3.98 µM [inhibitor, partial curve, poor fit] | –
42 | Cc1nc(N)sc1-c1csc(Nc2cccc(C(=O)O)c2)n1 | active: 39.8 µM | –
43 | CCOC(=O)c1sc(NC(=O)CSc2nncs2)c(C(=O)OCC)c1C | inconclusive: 25.1 µM [inhibitor, partial curve, poor fit] | –
44 | CC(NC(=O)c1cc(-c2ccc3c(c2)OCO3)nc2ccccc12)C(C)(C)C (stereo not given) | inconclusive: 14.1 µM [inhibitor, partial curve, poor fit] | –

Row | Compound | Potency | activity change, negative = inhibition
45 | C#Cc1ccc([C@@H]2C=C(C(=O)O)O[C@H](OCCCCO)C2)cc1 | active: 20 µM | –
46 | Cc1c(C(=O)NCC(c2ccco2)N(C)C)oc2c(Cl)cccc12 (stereo not given) | inconclusive: 31.6 µM [inhibitor, partial curve] | –
47 | COc1ccc(/C=N/NC(=O)c2cccc(S(=O)(=O)N3CCCC3)c2)cc1O | – | inactive: -8.31%
48 | N/C(=N\OC(=O)c1ccccc1Cl)c1ccccc1 | – | inactive: 7.95%
49 | Cc1c(OCc2nn[nH]n2)ccc2c3c(c(=O)oc12)CCC(C)C3 (stereo not given) | inconclusive: 100 µM [inhibitor, single point] | –
50 | CCCc1cc(=O)[nH]c(SCC(=O)Nc2sccc2C#N)n1 | inconclusive: 15.8 µM [inhibitor, partial curve, poor fit] | –
51 | CCc1ccccc1N(c1nc(-c2ccc(OC)c(OC)c2)no1)c1nc(-c2ccc(OC)c(OC)c2)no1 | – | inactive: -12.3%
52 | COC(=O)c1cc(S(=O)(=O)N2CCN(c3cccc(C)c3C)CC2)c[nH]1 | inconclusive: 79.4 µM [inhibitor, partial curve, poor fit] | –
53 | CCN(c1ccccc1)S(=O)(=O)c1ccc2[nH]cc(C(=O)N3CCOCC3)c(=O)c2c1 | inconclusive: 22.4 µM [inhibitor, single point] | –
54 | CCCc1nc2sc3c(c2c(=O)n1NC(=O)CCCl)CCCC3 | inconclusive: 15.8 µM [inhibitor, partial curve] | –
55 | COc1cc(NC(=O)c2cc3ccccc3o2)c(OC)cc1Br | inconclusive: 44.7 µM [inhibitor, single point] | –
56 | CC(C)c1cc(N2CCOCC2)n2ncc(-c3ccccc3)c2n1 | inconclusive: 79.4 µM [inhibitor, partial curve, poor fit] | –
57 | O=C(NCc1cccc(Cl)c1)c1cccc(OC2CCN(C(=O)C3CC3)CC2)c1 | – | inactive: -18.6%
58 | Cc1ccnc(SCC(=O)Nc2oc(-c3ccccc3)c(-c3ccccc3)c2C#N)n1 | – | inactive: -13.5%
59 | CCn1cc(C(=O)NCc2ccccc2OC)c(=O)c2cc(S(=O)(=O)N3CCCCCC3)ccc21 | inconclusive: 79.4 µM [inhibitor, partial curve, poor fit] | –
60 | O=C(COC(=O)c1cnc(Cl)c(Cl)c1)NCc1ccco1 | inconclusive: 63.1 µM [inhibitor, partial curve, poor fit] | –
61 | Cc1cc(OCCOc2cccc3cccnc23)c(C)cc1Cl | inconclusive: 31.6 µM [inhibitor, partial curve, poor fit] | –
62 | COc1cc(-c2nnc3sc(-c4ccco4)nn23)cc(OC)c1OC | inconclusive: 35.5 µM [inhibitor, single point] | –
63 | Cn1c(COc2ccc(Cl)cc2)nnc1SCC(=O)Nc1ccc2c(c1)CCC2 | inconclusive: 3.55 µM [inhibitor, partial curve, poor fit] | –
64 | Cc1nc2ccc(S(=O)(=O)Nc3ccc(-c4nc5cccnc5s4)cc3)cc2s1 | inconclusive: 79.4 µM [inhibitor, partial curve, poor fit] | –
65 | Cc1csc(N=Nc2ccc(N(C)C)cc2)[n+]1[O-] | inconclusive: 56.2 µM [inhibitor, partial curve, poor fit] | –
